Measurements from the supplement of paper PMC10441789.
The list shows a part of the results. Antibody binding of pooled human sera (four to six donors per pool; dilution not stated) to peptides of the Trypanosoma cruzi antigen TSSA on microarrays. Quantile-normalised fluorescence in arbitrary units, mean of duplicate arrays; higher = more binding. No active / inactive call. The uninfected pools are read here as the healthy donors of the same country. The strongest signals lie near the top of the scale (about 60,000).

Assays:
Assay in all cases: antibody binding signal (normalised fluorescence) (arbitrary fluorescence units); higher = stronger serum antibody binding to peptide
[1] = system: pooled sera of chronic Chagas disease patients, Argentina
Protocol: (§1)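 Microarray of 15-residue peptides over residues 30-55 of Trypanosoma cruzi TSSAII, each with 1 to 10 substitutions at naturally variable positions, probed with one serum pool per country.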

[2] = system: pooled sera of chronic Chagas disease patients, Bolivia
Protocol: as §1

[3] = system: pooled sera of chronic Chagas disease patients, Brazil
Protocol: as §1

[4] = system: pooled sera of chronic Chagas disease patients, Colombia
Protocol: as §1

[5] = system: pooled sera of chronic Chagas disease patients, Mexico
Protocol: as §1

[6] = system: pooled sera of chronic Chagas disease patients, USA
Protocol: as §1

[7] = system: pooled sera of uninfected people, Argentina
Protocol: as §1

[8] = system: pooled sera of uninfected people, Bolivia
Protocol: as §1

[9] = system: pooled sera of uninfected people, Brazil
Protocol: as §1

[10] = system: pooled sera of uninfected people, Colombia
Protocol: as §1

[11] = system: pooled sera of uninfected people, Mexico
Protocol: as §1

[12] = system: pooled sera of uninfected people, USA
Protocol: as §1

Sequence | antibody binding signal [1] | antibody binding signal [2] | antibody binding signal [3] | antibody binding signal [4] | antibody binding signal [5] | antibody binding signal [6] | antibody binding signal [7] | antibody binding signal [8] | antibody binding signal [9] | antibody binding signal [10] | antibody binding signal [11] | antibody binding signal [12]
SGKENKAAAGETPSQ | 5320 | 2670 | 22800 | 8930 | 6480 | 18900 | 9510 | 3890 | 106 | 685 | 559 | 159
NKTAAGGAPSPPGAS | 269 | 275 | 2280 | 6190 | 977 | 1070 | 837 | 1450 | 454 | 619 | 257 | 1440
KEKKAAAGGTPSQSG | 174 | 204 | 152 | 1560 | 166 | 1340 | 117 | 83.7 | 575 | 108 | 89.2 | 97
KTATGETPSQPGASS | 2130 | 4060 | 33500 | 253 | 303 | 4890 | 182 | 1600 | 369 | 179 | 226 | 241
KENKPAAGEAPSQPG | 8780 | 11400 | 45100 | 406 | 550 | 15800 | 199 | 331 | 171 | 130 | 152 | 118
KTAAGGAPSQPGASS | 152 | 199 | 1370 | 6300 | 807 | 185 | 230 | 134 | 129 | 99.4 | 95.6 | 137
NKPAAGGTPSQPGAS | 199 | 296 | 8260 | 1750 | 216 | 421 | 690 | 991 | 1060 | 609 | 545 | 1490
DKKTAAGETPSPPGA | 276 | 230 | 309 | 314 | 371 | 2040 | 141 | 208 | 144 | 501 | 473 | 285
KPAAGGAPSQSGASS | 237 | 251 | 517 | 1070 | 1130 | 325 | 306 | 188 | 124 | 105 | 348 | 207
KENKAAAGETPSPSG | 276 | 229 | 3970 | 259 | 236 | 2940 | 168 | 154 | 115 | 110 | 157 | 1720
KEKKAAAGEAPSPSG | 130 | 182 | 320 | 158 | 133 | 7280 | 168 | 79.3 | 93.6 | 74.8 | 69.4 | 87.9
NKAAAGEAPSPPGAS | 491 | 1480 | 25500 | 391 | 183 | 10200 | 546 | 1130 | 296 | 598 | 248 | 1180
KKAAAGGTPSQPGAS | 188 | 205 | 185 | 1850 | 196 | 1360 | 252 | 177 | 728 | 111 | 139 | 219
TPPSGTDKKAATGET | 8480 | 13600 | 25300 | 4320 | 15300 | 1410 | 232 | 150 | 375 | 457 | 1650 | 148
SGKDNKPAAGGAPSQ | 714 | 281 | 6370 | 1710 | 1040 | 1260 | 331 | 347 | 176 | 700 | 191 | 142
SGKEKKAATGETPSQ | 4080 | 686 | 9450 | 1470 | 3800 | 10400 | 412 | 242 | 95.1 | 280 | 82.8 | 166
KDKKAAAGEAPSPPG | 204 | 207 | 669 | 199 | 188 | 7530 | 157 | 72.8 | 86 | 96 | 77.8 | 88.7
KENKAAAGGTPSPSG | 167 | 216 | 159 | 1450 | 128 | 917 | 121 | 94.8 | 339 | 164 | 74.1 | 105
GTENKAAAGEAPSPP | 37000 | 576 | 24000 | 798 | 1170 | 11600 | 140 | 264 | 108 | 103 | 80.2 | 97.5
GTDKKTATGEAPSPS | 10500 | 19100 | 10900 | 1230 | 433 | 20400 | 201 | 182 | 277 | 96.6 | 210 | 120
PPSGKDNKTAAGEAP | 769 | 1010 | 2630 | 1980 | 4320 | 5130 | 498 | 792 | 292 | 407 | 198 | 258
GTEKKTAAGETPSQS | 398 | 364 | 550 | 509 | 625 | 1730 | 109 | 548 | 176 | 633 | 218 | 101
GKDKKTAAGGTPSPP | 317 | 175 | 219 | 3120 | 464 | 1710 | 96.9 | 88.2 | 239 | 226 | 97.3 | 133
DKKPATGGTPSPSGA | 958 | 684 | 445 | 3280 | 915 | 697 | 307 | 537 | 854 | 263 | 132 | 160
PSGTDKKPATGGAPS | 4930 | 775 | 27400 | 9900 | 2950 | 2880 | 351 | 1120 | 183 | 256 | 1390 | 268

Sequence | antibody binding signal [1] | antibody binding signal [2] | antibody binding signal [3] | antibody binding signal [4] | antibody binding signal [5] | antibody binding signal [6] | antibody binding signal [7] | antibody binding signal [8] | antibody binding signal [9] | antibody binding signal [10] | antibody binding signal [11] | antibody binding signal [12]
SGKDKKAAAGGTPSP | 409 | 187 | 224 | 2940 | 794 | 1740 | 116 | 79.2 | 459 | 170 | 77.2 | 113
TDKKPAAGETPSQPG | 1190 | 2200 | 32800 | 292 | 180 | 2930 | 117 | 386 | 187 | 664 | 143 | 129
SGKENKTATGGAPSP | 3490 | 914 | 17300 | 6760 | 4180 | 19400 | 7420 | 1850 | 138 | 337 | 632 | 174
KPAAGGTPSPSGASS | 164 | 215 | 287 | 1600 | 2520 | 330 | 140 | 140 | 309 | 240 | 82.7 | 230
TDNKAAAGETPSQSG | 154 | 415 | 13300 | 135 | 149 | 206 | 72.3 | 369 | 149 | 148 | 162 | 84.7
EKKAATGGTPSQSGA | 742 | 883 | 413 | 1170 | 829 | 1150 | 307 | 761 | 795 | 1160 | 251 | 715
STPPSGKDKKPATGE | 36800 | 4670 | 19600 | 261 | 51900 | 12400 | 897 | 736 | 134 | 339 | 147 | 129
TDNKTAAGETPSQPG | 828 | 3220 | 31000 | 187 | 186 | 862 | 149 | 642 | 277 | 255 | 130 | 160
TDKKPAAGEAPSPSG | 428 | 444 | 12600 | 268 | 183 | 14200 | 113 | 299 | 157 | 76 | 119 | 94.8
GKEKKTATGEAPSQS | 10300 | 7630 | 9950 | 4620 | 5400 | 15900 | 160 | 85.2 | 364 | 81.1 | 87.7 | 88.7
GKDNKTATGETPSQS | 4480 | 1770 | 6500 | 8420 | 6450 | 8970 | 343 | 331 | 183 | 342 | 126 | 166
ENKTAAGETPSQPGA | 673 | 4780 | 34800 | 286 | 232 | 3650 | 140 | 1180 | 248 | 315 | 257 | 223
TSSTPPSGKDKKPAT | 27800 | 979 | 4360 | 274 | 49300 | 889 | 272 | 141 | 125 | 207 | 112 | 132
GKDNKPATGGAPSPS | 1590 | 2010 | 3020 | 1660 | 2740 | 3640 | 340 | 1090 | 120 | 170 | 138 | 128
KENKTATGETPSQSG | 667 | 728 | 5490 | 719 | 297 | 6620 | 166 | 247 | 229 | 167 | 225 | 139
NKTATGGAPSPSGAS | 747 | 474 | 4870 | 760 | 706 | 766 | 798 | 1030 | 455 | 255 | 305 | 1270
PSGTDKKTAAGGTPS | 1870 | 333 | 1910 | 14700 | 3690 | 2770 | 171 | 466 | 590 | 327 | 513 | 276
GKDKKTAAGETPSQP | 585 | 1090 | 16700 | 1040 | 856 | 1230 | 126 | 120 | 100 | 284 | 100 | 103
DNKAATGETPSQPGA | 7040 | 7610 | 41900 | 139 | 188 | 14100 | 126 | 932 | 375 | 228 | 213 | 204
TDKKTATGEAPSPPG | 9300 | 20400 | 12700 | 214 | 297 | 18800 | 170 | 95.3 | 199 | 94.5 | 119 | 123
GTDKKPATGGTPSPS | 1000 | 484 | 1530 | 7430 | 1810 | 1200 | 219 | 530 | 627 | 296 | 364 | 182
STPPSGTDNKPAAGG | 35200 | 48000 | 49800 | 3290 | 15300 | 42000 | 1440 | 811 | 977 | 333 | 1680 | 763
GTEKKPAAGETPSQS | 1480 | 411 | 4830 | 827 | 1070 | 1660 | 90 | 876 | 1940 | 566 | 439 | 1060
SGTEKKTAAGETPSP | 277 | 395 | 782 | 526 | 470 | 2160 | 120 | 420 | 236 | 616 | 194 | 474
TSSTPPSGKEKKTAA | 16200 | 311 | 269 | 531 | 17900 | 562 | 507 | 469 | 372 | 217 | 86.2 | 235
